Reference: PubChem BioAssay AID1030 (National Center for Advancing Translational Sciences (NCATS), 2008)
In all, about 220,000 compounds went through this assay and about 16,000 (7.3%) were called active. Inconclusive means that the source gave no clear call. Such entries were picked first, then a sample of the others. Calls follow the shape of the dose curve; as a rule, active = well fitted inhibition curve with a large enough effect (not every such curve was filed as active); inconclusive = small, poorly fitted or top-dose-only effect, or another doubt; inactive = no such curve, though single readings can be large or run the other way. No potency is given beside an inconclusive call; the fits are too rough.
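For activity, negative = inhibition in this document: plate controls were no enzyme wells and a reference inhibitor.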
Potency is read from the fitted curve at half-maximal effect; tags tell the direction and shape of the fitted curve.

Each compound was assayed against Aldehyde dehydrogenase 1A1 (Homo sapiens) (UniProt P00352) (assay: qHTS Assay for Inhibitors of Aldehyde Dehydrogenase 1 (ALDH1A1)). Details: Purified ALDH1A1, NADH fluorescence, propionaldehyde substrate; series mostly up to 75.3 µM.
UniProt P00352, sequence (P00352 whole entry, looked up): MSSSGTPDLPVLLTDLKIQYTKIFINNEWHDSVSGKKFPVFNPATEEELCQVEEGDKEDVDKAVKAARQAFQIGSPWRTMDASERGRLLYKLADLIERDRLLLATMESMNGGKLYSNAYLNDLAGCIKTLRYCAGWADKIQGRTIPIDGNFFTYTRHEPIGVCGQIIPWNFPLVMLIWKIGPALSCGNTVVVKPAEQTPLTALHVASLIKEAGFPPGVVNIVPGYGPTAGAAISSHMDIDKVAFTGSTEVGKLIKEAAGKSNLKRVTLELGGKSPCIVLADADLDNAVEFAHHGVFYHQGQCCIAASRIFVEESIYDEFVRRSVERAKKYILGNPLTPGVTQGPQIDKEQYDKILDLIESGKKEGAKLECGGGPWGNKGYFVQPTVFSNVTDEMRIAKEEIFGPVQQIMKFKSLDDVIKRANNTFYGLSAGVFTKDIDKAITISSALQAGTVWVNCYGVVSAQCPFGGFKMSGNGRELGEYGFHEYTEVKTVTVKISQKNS
In the case of CC(=O)N(CN1C(=O)c2ccc([N+](=O)[O-])cc2C1=O)c1ccc(F)cc1, the Potency was inconclusive [inhibitor, single point].
C[n+]1ccn(CC(=O)c2ccc(Br)cc2)c1 was tested, and the Potency was “inactive”.
In the case of CCc1ccc(S(=O)(=O)Nc2ccc(N3CCN(C)CC3)cc2)cc1, the Potency was inconclusive [inhibitor, single point].
With CCOC(=O)C1CCN(c2c(NCCCN(CC)c3ccccc3)c(=O)c2=O)CC1 the Potency was “inactive”.
With Nc1nc(SCC(=O)O)[nH]c(=O)c1N the activity, negative = inhibition was inactive: -11.6% [at 13.5 µM].
In the case of Cc1ccc2nsnc2c1NC(=O)c1ccc(-c2cc(Cl)ccc2Cl)o1, the Potency was inconclusive [inhibitor, partial curve].
For CS(=O)(=O)Nc1cccc(-c2nc(NCCN3CCOCC3)c3ccccc3n2)c1, the Potency was “inactive”.
For Cc1cccc(-c2nnc(N)s2)c1, the Potency was inconclusive [inhibitor, partial curve].
COc1cc(C2SCCS2)cc(Br)c1Oc1ncccc1[N+](=O)[O-] was tested, and the Potency was inconclusive [inhibitor, single point].
For O=C(O)C1C2C=CC(C2)C1C(=O)N1CCN(CCO)CC1 (configuration not stated), the Potency was “inactive”.
For CCN1CCN(C(=S)Nc2ccc3nc(N4CCN(CC)CC4)cc(C)c3c2)CC1, the Potency was inconclusive [inhibitor, partial curve].
Cn1nnnc1SCC(=O)Nc1ccccc1Cc1ccccc1 was tested, and the Potency was “inactive”.
CCC(CC)c1nnc(NC(=O)C2CCCO2)s1 (configuration not stated) was tested, and the Potency was inconclusive [inhibitor, single point].
In the case of COC(=O)C1=C(C)NC(=O)/C1=C/c1ccc(CNS(=O)(=O)c2ccc(C)cc2)o1, the Potency was “inactive”.
With CC(=O)Oc1ccc(/C=c2\sc3ncnn3c2=O)cc1 the Potency was inconclusive [inhibitor, single point].
CCOc1ccc(C(=O)c2ccncc2)cc1 was tested, and the Potency was “inactive”.
For O=C1C2C3C=CC(C3)C2C(=O)N1c1n[nH]c(CCc2ccccc2)n1 (configuration not stated), the Potency was inconclusive [inhibitor, single point].
c1ccc(CCNc2ncnc3scc(C4COc5ccccc5O4)c23)cc1 (configuration not stated) was tested, and the Potency was active: 0.0562 µM.
For CCOC(=O)CSC1=NC(=O)CS1, the Potency was active: 31.6 µM.
COc1ccc(-c2csc(NC(=O)c3cccc(S(=O)(=O)N4CCN(C)CC4)c3)n2)cc1 was tested, and the Potency was inconclusive [inhibitor, partial curve].
COc1ccccc1NC(=O)/C=C1\SCC(=O)N1C was tested, and the Potency was inconclusive [inhibitor, single point].
CCOc1ccc(NC(=O)CSc2nnc(C34CC5CC(CC(C5)C3)C4)n2C)cc1 was tested, and the Potency was inconclusive [inhibitor, partial curve].
Cc1ccc(C(=O)N2CCn3c(C)ccc3C2C)cc1 (configuration not stated) was tested, and the Potency was inconclusive [inhibitor, partial curve].
In the case of O=C1NC(Nc2nccs2)(C(F)(F)F)C(=O)N1CCc1ccccc1 (configuration not stated), the Potency was “inactive”.
For CCCCNc1nc2c(S(=O)(=O)c3ccccc3)nnn2c2ccccc12, the Potency was inconclusive [inhibitor, partial curve].
Cc1ccc(NC(=O)CNc2ccc(OC(C)C)cc2)c(C)c1 was tested, and the Potency was active: 4.47 µM.
For COc1ccc(N2CCN(C(=O)CN(c3ccccc3)S(=O)(=O)c3ccc(OC)cc3)CC2)cc1, the Potency was “inactive”.
C(=N\N(c1ccccc1)c1ccccc1)/c1ccc(N2CCOCC2)s1 was tested, and the Potency was inconclusive [inhibitor, partial curve].
In the case of Cc1ccc(C(=O)N/N=C\c2cc3c(cc2Br)OCO3)s1, the Potency was inconclusive [inhibitor, partial curve].
With Cc1cc(C)n2ncc(C(=O)NCc3ccc(Cl)cc3)c2n1 the Potency was “inactive”.
COC(=O)COn1c(SCC(=O)OC)nc2ccccc2c1=O was tested, and the Potency was inconclusive [inhibitor, single point].
In the case of CCc1ccc(NC(=O)CC2C(=O)N(c3cccc(C)c3)C(=O)N2C2CC2)cc1 (configuration not stated), the Potency was active: 11.2 µM.
For O=C(Nc1ccc2nc(-c3ccco3)[nH]c2c1)c1ccco1, the Potency was inconclusive [inhibitor, single point].
With COc1ccc(N(C(=O)c2ccc(Cl)cc2)C2=CC3CCC(C2)N3C)cc1 (configuration not stated) the Potency was inconclusive [inhibitor, single point].
COC(=O)c1cccc(NC(=O)CCNC(=O)c2ccc([N+](=O)[O-])cc2)c1 was tested, and the Potency was “inactive”.
With Cc1nc2c(-c3ccc(F)cc3)c(C)nn2c(C)c1CCC(=O)NC(C)CCc1ccco1 (configuration not stated) the Potency was inconclusive [inhibitor, single point].
In the case of CC/C(Cc1ccccc1)=N/NC(=O)c1cccc(Br)c1, the Potency was inconclusive [inhibitor, single point].
In the case of COCc1nnc(NC(=O)c2ccc(OC)cc2OC)s1, the Potency was inconclusive [inhibitor, partial curve].
For CCNC(=O)COC(=O)c1cc(-c2ccccc2)nn1-c1ccccc1, the Potency was inconclusive [inhibitor, single point].
With COc1ccc(Cc2c(Cl)ncnc2Cl)cc1 the Potency was inconclusive [inhibitor, single point].
For Cc1cc(C)c(S(=O)(=O)N2CCCOC2CNC(=O)C(=O)NCCc2c[nH]c3ccccc23)c(C)c1 (configuration not stated), the Potency was “inactive”.
CC1(C)CC(=O)c2sc(NC(=O)C(C)(C)C)nc2C1 was tested, and the Potency was inconclusive [inhibitor, partial curve].
For O=C1NCCCC1C(=O)N/N=C/c1cccc(Cl)c1 (configuration not stated), the Potency was “inactive”.
In the case of CC(=O)Nc1sc2c(c1C(c1ccccn1)N1CCCC1)CCCC2 (configuration not stated), the Potency was inconclusive [inhibitor, single point].
COc1cc(/C=N/NC(=O)CN2CCOCC2)ccc1OCc1ccccc1 was tested, and the Potency was “inactive”.
With Clc1ccc(OCc2cn3cccnc3n2)c2ncccc12 the Potency was inconclusive [inhibitor, single point].
In the case of CC(C)C[C@@H](CC(=O)N[C@H](CC(=O)N[C@@H]1CCNC[C@H]1C(=O)N[C@H](CC(=O)N[C@@H](CCC(=O)O)CC(=O)O)CC(C)C)C(C)C)NC(=O)[C@@H]1CNCC[C@H]1N, the Potency was “inactive”.
COc1ccc(OC)c(N=CC2=C(O)CC(C)(C)CC2=O)c1 was tested, and the Potency was active: 12.6 µM.
For N#CCCN1CCN(S(=O)(=O)c2ccc3c(c2)OCCCO3)CC1, the Potency was inconclusive [inhibitor, partial curve].
For CC(=O)Nc1ccc2c3c(cccc13)C(=O)N(c1ccccc1)C2=O, the Potency was inconclusive [inhibitor, partial curve].
With COc1ccc(NC(=S)Nc2cccnc2)c(OC)c1 the Potency was inconclusive [inhibitor, single point].
For N/C(=N\OC(=O)c1ccc(Cl)cc1Cl)c1cccnc1, the Potency was inconclusive [inhibitor, single point].
With O=C(NCCC1=CCCCC1)C1CCN(Cc2cnn(-c3ccccc3)c2-n2cccc2)CC1 the Potency was inconclusive [inhibitor, partial curve].
N#CC1=C(N)OC2=C(C(=O)CC(c3ccccc3)C2)C1c1cccnc1 (configuration not stated) was tested, and the Potency was inconclusive [inhibitor, single point].
With CCOC(=O)c1sc(NC(=O)CSc2nnnn2-c2ccc(C)cc2C)nc1C the Potency was inconclusive [inhibitor, single point].
For N#Cc1c(Oc2ccc3ccccc3c2)sc(C(=O)c2ccccc2)c1N, the Potency was inconclusive [inhibitor, single point].
Cc1ccccc1Cn1cc(S(=O)(=O)CC(=O)N2CCCCC2)c2ccccc21 was tested, and the Potency was inconclusive [inhibitor, full curve].
With COc1cccc(Nc2ncc3nc(-c4cccs4)c(=O)n(Cc4cccs4)c3n2)c1 the Potency was inconclusive [inhibitor, single point].
With Cc1nc2ccccn2c1-c1ccnc(=S)[nH]1 the Potency was inconclusive [inhibitor, partial curve, poor fit].
CCCCCCCCCCCCCCCC(=O)O[C@H](CC(=O)O)C[N+](C)(C)C was tested, and the Potency was “inactive”.
With CCn1c(NC(=O)C(C)C)c(-c2ccccc2)c(=O)c2ccccc21 the Potency was inconclusive [inhibitor, partial curve].
COc1ccc(N/C(=C(/C(Cl)=C(Cl)Cl)[N+](=O)[O-])n2nnc3ccccc32)cc1 was tested, and the Potency was active: 15.8 µM.
With CCN(CC)S(=O)(=O)c1ccc(C(=O)NCc2n[nH]c(=S)n2Cc2ccccc2)cc1 the Potency was active: 2.51 µM.
In the case of Cc1csc(NC(=O)c2ccc(Cl)cc2[N+](=O)[O-])n1, the Potency was “inactive”.
O=C(CN1CCN(c2ccccc2F)CC1)Nc1ccccc1F was tested, and the Potency was active: 20 µM.
CCOC(=O)Cn1nnnc1CN(Cc1ccc(OC)cc1)Cc1cc2cc(C)cc(C)c2[nH]c1=O was tested, and the Potency was inconclusive [inhibitor, single point].
In the case of Cn1cc(Br)c(C(=O)Nc2sc3c(c2C#N)CCC3)n1, the Potency was inconclusive [inhibitor, partial curve].
With Cc1ccccc1CSCCNC(=O)c1ccc(Cl)c(S(=O)(=O)N2CCOCC2)c1 the Potency was inconclusive [inhibitor, single point].
Cc1nc2nc(-c3cccnc3)[nH]n2c(=O)c1C was tested, and the Potency was active: 17.8 µM.
In the case of CC1=C(C(=O)Nc2ccc(F)cc2)C(c2ccc(C)o2)C2=C(CC(C)(C)CC2=O)N1 (configuration not stated), the Potency was “inactive”.
With COc1ccc(/C=C2/SC(=O)N(CCC(=O)Nc3ccc(C)cc3)C2=O)cc1OC the Potency was “inactive”.
COc1ccc(NC(=O)CC2C(=O)N(C)C(=S)N2CCc2ccccc2)cc1 (configuration not stated) was tested, and the Potency was active: 0.891 µM.
